Our source for the Potency values is PubChem BioAssay AID360 (National Center for Advancing Translational Sciences (NCATS), 2006).

The whole screen tested about 48,000 compounds, of which about 550 (1.1%) were called active. Not shown: some 4% with an inconclusive outcome. No stated cut-off is given here; in the data, active means potency below about 15 µM; inconclusive means mostly about 16 µM to 33 µM; inactive means weaker than that. This is one part of the list.
Potency means the concentration at half of the fitted maximal effect.

The target of the experiment is Lysosomal acid glucosylceramidase (Homo sapiens) (UniProt P04062). The experiment can be described thus: Glucocerebrosidase.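 Further: the screen sought inhibitors.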 As to conditions: purified enzyme, resorufin glucoside fluorescence (screen aimed at inhibitors), 20 min. In short, it runs like this: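 Wild-type enzyme at 0.2 nM final in 50mM citric acid/KH2PO4, 10mM sodium taurocholate, 0.01% tween-20, pH 5.9, with resorufin beta-D-glucopyranoside at 30 uM final. Compounds titrated, 20 min at RT, red fluorescence read; AC50 from titration.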
Sequence of UniProt P04062 (P04062 whole entry, looked up): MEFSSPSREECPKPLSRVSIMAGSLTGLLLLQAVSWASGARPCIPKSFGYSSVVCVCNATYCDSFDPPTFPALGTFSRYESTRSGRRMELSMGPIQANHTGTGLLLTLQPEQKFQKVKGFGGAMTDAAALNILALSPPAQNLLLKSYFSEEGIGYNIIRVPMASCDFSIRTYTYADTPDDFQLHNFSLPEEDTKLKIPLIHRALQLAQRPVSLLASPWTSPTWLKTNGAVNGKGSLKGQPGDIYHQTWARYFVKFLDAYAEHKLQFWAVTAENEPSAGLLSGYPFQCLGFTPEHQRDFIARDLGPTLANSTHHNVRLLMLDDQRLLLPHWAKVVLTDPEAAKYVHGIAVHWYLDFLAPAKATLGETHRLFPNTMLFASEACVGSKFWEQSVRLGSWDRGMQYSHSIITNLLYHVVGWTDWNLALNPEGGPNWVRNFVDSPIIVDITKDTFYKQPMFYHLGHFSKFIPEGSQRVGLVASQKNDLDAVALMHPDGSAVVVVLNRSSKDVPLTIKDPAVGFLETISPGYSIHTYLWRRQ
With `Cc1cccc(-c2noc(CN(C)S(=O)(=O)c3cc(Cl)ccc3Cl)n2)c1`, the Potency is inactive: > 76.9 µM.

`O=C(CSc1nncs1)NCc1ccc2c(c1)OCO2`: the Potency is inactive: > 76.9 µM.

With `Cc1ccc(OCCC(=O)OCC(=O)Nc2ccc(Cl)cn2)cc1`, the Potency is inactive: > 76.9 µM.

For the compound `O=C(Nc1cccc2nsnc12)C1CC(=O)N(c2ccccc2)C1` (configuration not stated), the Potency is inactive: > 76.9 µM.

Take `O=C(COc1ccc(Cl)cc1)Nc1ccccc1N1CCOCC1`: the Potency is inactive: > 76.9 µM.

For the compound `O=C(CCSc1nnc(-c2ccco2)o1)Nc1ccc(Cl)cc1`, the Potency is inactive: > 76.9 µM.

Regarding `Cc1ccc2c(CC(=O)OCc3csc(C)n3)coc2c1`, the Potency is inactive: > 76.9 µM.

In the case of `Cc1cc(Cl)c(S(=O)(=O)NC(C(=O)O)c2ccccc2)cc1OCC(N)=O` (configuration not stated), the Potency was inactive: > 76.9 µM.

With `CCOc1ccc(N2C(=O)c3ccc(C(=O)OCc4c(C)noc4C)cc3C2=O)cc1`, the Potency is inactive: > 76.9 µM.

With `O=c1nc2n(c3c4c(sc13)CCC4)CCC2`, the Potency was inactive: > 76.9 µM.

For the compound `Cc1cc(NC(=O)CCCC(=O)Nc2ccc(F)cc2)no1`, the Potency was inactive: > 15.4 µM.

With `COc1ccc(N2CCN(S(=O)(=O)c3ccc(Br)s3)CC2)cc1`, the Potency is inactive: > 76.9 µM.

As to `C/C(Cl)=C/Cn1c(N2CCCC2)nc2c1c(=O)n(C)c(=O)n2C`, the Potency was inactive: > 76.9 µM.

As for `CC(=O)Nc1cccc(NC(=O)CCn2cnc3cc(C)c(C)cc32)c1`, the Potency was inactive: > 76.9 µM.

Take `CCOC(=O)C1CCCN(Cc2c(F)cccc2Cl)C1` (configuration not stated): the Potency is inactive: > 76.9 µM.

Take `O=C(Nc1ccc2nc(-c3ccco3)[nH]c2c1)c1cccs1`: the Potency was inactive: > 76.9 µM.

`c1ccc(-c2nn3c(Cn4cnc5ccccc54)nnc3s2)cc1`: the Potency is inactive: > 76.9 µM.

Turning to `CCCCS(=O)(=O)Nc1ccc(Cc2ccncc2)cc1`, the Potency was inactive: > 76.9 µM.

`CCOC(=O)c1nn(-c2ccc(OC)cc2)c(=O)c2c(N)scc12`: the Potency was inactive: > 76.9 µM.

`CC(C)C(NC(=O)c1ccc(Cl)cc1)C(=O)NC1=NCCS1` (configuration not stated): the Potency was inactive: > 76.9 µM.

For `COCc1nnc(NS(=O)(=O)c2ccccc2)s1`, the Potency was inactive: > 76.9 µM.

Consider `Cc1ccc(C(=O)CSc2nnc(-c3ccco3)n2Cc2ccccc2)cc1`, for which the Potency was inactive: > 76.9 µM.

For `CN1C(=O)C2(NCCc3c2[nH]c2ccccc32)c2ccccc21` (configuration not stated), the Potency is inactive: > 76.9 µM.

As for `COc1cc2[nH]c(=O)n3nc(-c4ccccc4)nc3c2cc1OC`, the Potency was inactive: > 76.9 µM.

As for `CC1(C)NC(=O)N(CC(O)CN2CCCC2)C1=O` (configuration not stated), the Potency was inactive: > 76.9 µM.

With `Cc1ccc(N2CC(C(=O)Nc3ccccn3)CC2=O)cc1` (configuration not stated), the Potency is inactive: > 76.9 µM.

`CCOC(=O)c1cccc(NC(=O)CCn2nnc3ccccc32)c1`: the Potency is inactive: > 76.9 µM.

On to `COC(=O)c1cccc(NC(=O)C2C3CCC(C3)C2C(=O)O)c1` (configuration not stated), for which the Potency is inactive: > 76.9 µM.

Take `CCCCC(=O)Nc1ccc(C(=O)N2CCN(C)CC2)cc1`: the Potency is inactive: > 76.9 µM.

In the case of `CC1CN(C(=O)c2ccccc2C(=O)c2ncc[nH]2)CC(C)O1` (configuration not stated), the Potency is inactive: > 76.9 µM.

As to `CCSc1nc2c(c(=O)[nH]1)C(c1cccnc1)C(C(=O)OC)=C(C)N2` (configuration not stated), the Potency is inactive: > 76.9 µM.

In the case of `CCOc1ccccc1N1CCN(C(=O)Nc2cccc(Cl)c2)CC1`, the Potency was inactive: > 76.9 µM.

As for `COC(=O)Nc1ccc(Oc2ccccc2)cc1`, the Potency is inactive: > 76.9 µM.

With `Cn1cnnc1Sc1nc2c(c(=O)n(C)c(=O)n2C)n1Cc1ccccc1Cl`, the Potency was inactive: > 76.9 µM.

For the compound `O=C(Nc1ccccc1N1CCCCC1)c1cccs1`, the Potency was inactive: > 76.9 µM.

`Cc1ccc(Cn2ccc(NC(=O)c3cc(-c4ccc(Br)cc4)on3)n2)cc1`: the Potency was inactive: > 76.9 µM.

Turning to `O=C1CCCC/C1=C/Nc1ccc2c(c1)OCO2`, the Potency is inactive: > 76.9 µM.

Turning to `O=C(CCc1nc(-c2ccccc2)no1)Nc1cc(C(F)(F)F)ccc1Cl`, the Potency is inactive: > 76.9 µM.

For `Cn1c(=O)n(C)c2cc(S(=O)(=O)NCc3ccccc3)ccc21`, the Potency was inactive: > 76.9 µM.

As to `CC(=O)Nc1ccc(-n2c(C)nc(=O)c(-c3ccccc3)c2C)cc1`, the Potency is inactive: > 76.9 µM.

On to `CCC(=O)c1cn(CC(=O)NCc2cccnc2)c2ccccc12`, for which the Potency was inactive: > 76.9 µM.

In the case of `O=C1CCCc2c1[nH]c1ccccc21`, the Potency was inactive: > 76.9 µM.

As to `CCn1c(SCC(=O)NCc2ccc3c(c2)OCO3)nnc1-c1c[nH]c2ccccc12`, the Potency is inactive: > 76.9 µM.

As to `CC1CN(S(=O)(=O)c2cccc(-c3cn4cccnc4n3)c2)CC(C)O1` (configuration not stated), the Potency is inactive: > 76.9 µM.

For the compound `CN(C)CCCOC(=O)CCc1ccccc1`, the Potency was inactive: > 76.9 µM.

With `CC(=O)C1=C(C)Nc2ncnn2C1c1ccccc1Cl` (configuration not stated), the Potency is inactive: > 76.9 µM.

For `CC(=O)Nc1c(C(=O)O)[nH]c2ccccc12`, the Potency is inactive: > 76.9 µM.

On to `C=CCn1c(=O)c2ccccc2n2c(SCC(=O)Nc3cc(C)on3)nnc12`, for which the Potency is inactive: > 76.9 µM.

As to `CC(C)n1c(SC2CCOC2=O)nc2ccccc21` (configuration not stated), the Potency was inactive: > 76.9 µM.

For `CCOc1cc(C2C(C#N)=C(N)Oc3n[nH]c(-c4ccccc4)c32)ccc1O` (configuration not stated), the Potency is inactive: > 76.9 µM.

For `Cc1noc(NS(=O)(=O)c2ccc(N3CC(O)=C(c4ccccc4)C3=N)cc2)c1C`, the Potency is inactive: > 76.9 µM.

For `COCCn1c(C)c(C(=O)O)sc1=S`, the Potency was inactive: > 76.9 µM.

For the compound `Cn1c(=O)c2c(ncn2CC(=O)N2CCN(c3ccccc3)CC2)n(C)c1=O`, the Potency is inactive: > 76.9 µM.

`CC(=O)N1CCc2ccc(C(=O)CN3CCN(c4cccc(C)c4C)CC3)cc21`: the Potency was inactive: > 76.9 µM.

`CC1(C)Cc2nc3sc4c(SCC(=O)NCc5ccco5)ncnc4c3cc2CO1`: the Potency is inactive: > 76.9 µM.

Consider `Cc1cccc(C2c3c(n(C)c(=O)n(C)c3=O)N=C3c4ccccc4C(=O)C32)c1` (configuration not stated), for which the Potency is inactive: > 76.9 µM.

Take `CCCCn1c2c(c(=N)c3c1CCC3)CCC2`: the Potency was inactive: > 76.9 µM.

`CN1C(=O)CC(N2CCC(C(N)=O)(N3CCCCC3)CC2)C1=O` (configuration not stated): the Potency was inactive: > 76.9 µM.

Regarding `CCOC(=O)C(C)Oc1ccc(=O)n(-c2ccccc2)n1` (configuration not stated), the Potency was inactive: > 76.9 µM.

Take `Cc1nnc(NC(=O)NC(C)N2C(=O)C3C4C=CC(C4)C3C2=O)s1` (configuration not stated): the Potency is inactive: > 76.9 µM.

On to `Cc1cc(=O)oc2cc(OCc3nnc(-c4ccccc4Br)o3)ccc12`, for which the Potency was inactive: > 76.9 µM.

Turning to `CCCCN1c2ccccc2N(CCCO)c2cc(C)nnc21`, the Potency is inactive: > 76.9 µM.

`COCCN1C(=O)c2ccccc2C(C(=O)NCCCN2CCCC2)C1c1c[nH]c2ccccc12` (configuration not stated): the Potency was inactive: > 76.9 µM.

Take `COCc1nnc(NS(=O)(=O)c2ccc(C)cc2)s1`: the Potency is inactive: > 76.9 µM.

As to `CN(C)CCCNCCCNC(=O)c1ccncc1`, the Potency is inactive: > 76.9 µM.

With `CCOC(=O)C(NC(C)=O)(Nc1cccc(F)c1)C(F)(F)F` (configuration not stated), the Potency was inactive: > 76.9 µM.

In the case of `CN(C)c1ccc(N/C=C/C(=O)c2ccc(F)cc2)cc1`, the Potency is inactive: > 76.9 µM.

Take `Cc1nc(N2CCN(c3ccccc3)CC2)nc2c1C(=O)CC(C)C2` (configuration not stated): the Potency was inactive: > 15.4 µM.

Regarding `COc1ccc(OC)c(S(=O)(=O)N(C)CC(=O)O)c1`, the Potency was inactive: > 76.9 µM.

With `Cc1ccc(C(=O)Nc2ccc(S(=O)(=O)N3CCc4ccccc43)cc2)o1`, the Potency was inactive: > 76.9 µM.

As for `COC(=O)Cn1c2ccc(F)cc2c2nc(C)sc21`, the Potency was inactive: > 76.9 µM.

With `CCOc1cc(C(=O)Nc2ccccc2N2CCN(S(C)(=O)=O)CC2)cc(OCC)c1OCC`, the Potency is inactive: > 76.9 µM.

Take `COCCn1c(C)cc(C(=O)CSc2ncn[nH]2)c1C`: the Potency is inactive: > 76.9 µM.

With `COc1ccc(OC)c2[nH]c(=O)c(CCNC(=O)COc3ccccc3)cc12`, the Potency was inactive: > 76.9 µM.

Take `CC1Cc2ccccc2N1C(=O)c1ccc2c(c1)nnn2C` (configuration not stated): the Potency is inactive: > 76.9 µM.

On to `CCS(=O)(=O)NCCCCc1ccccc1`, for which the Potency is inactive: > 76.9 µM.

Turning to `O=C(O)C1CCN(c2nc(-c3ccccc3)nc3c2oc2ccccc23)CC1`, the Potency entry was “inactive”.

As to `COC(=O)CSc1ncnc2c1cnn2Cc1ccccc1`, the Potency is inactive: > 76.9 µM.

For `CNC(=O)C1CC(=O)N(Cc2ccc3c(c2)OCO3)C(=Nc2ccc(OC)cc2)S1` (configuration not stated), the Potency is inactive: > 76.9 µM.

For the compound `CCn1c(=O)cc(SCC(=O)NCCN2CCN(Cc3ccccc3)CC2)c2ccccc21`, the Potency was inactive: > 76.9 µM.

Consider `COc1ccc(NCc2nnc(SCC(=O)c3ccc(OC)cc3)n2C)cc1`, for which the Potency was inactive: > 76.9 µM.

In the case of `O=C(O)CCCNCc1ccccc1F`, the Potency was inactive: > 76.9 µM.

As for `COc1ccccc1N1CCN(C(=O)c2ccc(CS(=O)(=O)c3ccccc3OC)o2)CC1`, the Potency is inactive: > 76.9 µM.

As to `CCOC(=O)N1CCN(C(=O)COc2cc(=O)n(CC)c3ccccc23)CC1`, the Potency is inactive: > 76.9 µM.

For the compound `O=C(CC(C(=O)O)N1CCOCC1)Nc1ccc(Cl)cc1` (configuration not stated), the Potency is inactive: > 76.9 µM.

`CCOC(=O)C1CCN(S(=O)(=O)c2ccc(NC(=O)OC)cc2)CC1`: the Potency is inactive: > 76.9 µM.

In the case of `Cn1c(-c2ccccc2)cc2c3no[n+]([O-])c3ccc21`, the Potency was inactive: > 76.9 µM.

On to `CCOC(=O)N1CCN(C(=O)CN(Cc2ccccc2)S(=O)(=O)c2ccc(OC)c(C)c2)CC1`, for which the Potency is inactive: > 76.9 µM.

For the compound `Cc1cc(C)nc(NS(=O)(=O)c2cccs2)c1`, the Potency is inactive: > 76.9 µM.

`COC(=O)Cc1cc(=O)[nH]c(/N=C(/NC(=O)c2ccccc2)Nc2ccccc2C)n1`: the Potency is inactive: > 76.9 µM.

Consider `Cc1ccnc(NC(=O)CCCOc2cc(=O)n(C)c3ccccc23)c1`, for which the Potency was inactive: > 76.9 µM.

Take `CCNc1nc(Oc2ccc(=O)[nH]n2)nc(SC)n1`: the Potency was inactive: > 76.9 µM.
